Reference: PubChem BioAssay AID485344 (National Center for Advancing Translational Sciences (NCATS), 2010)
Out of some 340,000 compounds screened, about 6,900 (2%) were called active. Rule as the data show it: active = inhibition above about 30%; inactive = below that, where a call was filed. This is a selection; strong and weak results do not stand in their true shares. The source gives no active or inactive call for entries shown without one.

These molecules were tested against D(2) dopamine receptor (Homo sapiens) (UniProt P14416) (assay: HTS Assay for Allosteric Antagonists of the Human D2 Dopamine Receptor: Primary Screen for Antagonists). Details: HEK293 TREx D2 cells, calcium flux, dopamine EC80; at 10 µM; stronger effect = higher value.
UniProt P14416, sequence (P14416 whole entry, looked up): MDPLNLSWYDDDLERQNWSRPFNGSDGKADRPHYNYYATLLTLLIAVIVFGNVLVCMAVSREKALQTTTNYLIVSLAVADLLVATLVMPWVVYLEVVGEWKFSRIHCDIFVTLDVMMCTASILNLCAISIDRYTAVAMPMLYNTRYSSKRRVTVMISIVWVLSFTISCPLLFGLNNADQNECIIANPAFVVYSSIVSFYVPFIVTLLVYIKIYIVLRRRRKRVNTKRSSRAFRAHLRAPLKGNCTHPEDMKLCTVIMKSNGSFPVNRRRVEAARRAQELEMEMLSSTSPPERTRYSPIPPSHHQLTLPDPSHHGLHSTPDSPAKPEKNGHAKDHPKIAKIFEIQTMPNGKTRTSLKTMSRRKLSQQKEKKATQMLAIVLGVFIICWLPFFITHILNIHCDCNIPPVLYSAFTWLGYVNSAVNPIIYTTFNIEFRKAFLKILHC
How it was run: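 Overnight-induced (tetracycline, 30 C) HEK293 T-REx cells carrying force-coupled D2 receive a no-wash calcium dye, then compound, then EC80 dopamine at 180 s; signals are read kinetically throughout.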
Also: 0% is about no effect.

| Structure (SMILES) | inhibition |
| --- | --- |
| Cc1ccc(O)c(NC(=O)c2cc(-c3ccc4c(c3)OCO4)on2)c1 | 12.3% |
| O=C(C1CC1)N1CCc2cc(Br)cc(S(=O)(=O)NC3CCCCC3)c21 | active: 39.6% |
| Cc1c(CC(=O)N2CCCCC2)c(=O)oc2c(C)c3occ(C(C)(C)C)c3cc12 | -12.8% |
| CCCCOc1ccc(C(C)NC(=O)c2cccc(Nc3nc4ccccc4n4nnnc34)c2)cc1 (centres undefined) | 19.8% |
| COc1ccc(Cl)cc1NC(=O)C1CCN(c2nnc(C)c3c(C)n(-c4ccccc4)nc23)CC1 | 9.92% |
| Cc1ccc(CN2CCSc3ccc(C(=O)NCCc4ccccc4)cc32)cc1 | 4.8% |
| COC(=O)[C@@]1(Cc2ccc(F)cc2)[C@H]2c3cc(C(=O)N4CCCC4)n(CCc4ccc(O)c(O)c4)c3C[C@H]2CN1C(=O)c1ccccc1 | active: 96.3% |
| O=c1n(Cc2cccc(F)c2)c2ccccc2c2nc(-c3ccccc3)nn12 | 7.55% |
| CN(C)C=NC(=O)c1cc2c(n(-c3ccccc3)c1=O)CC(C)(C)CC2=O | 8.74% |
| Cc1ccc(-n2c3nc(=O)[nH]c(=O)c-3cc3c(Cl)cccc32)cc1 | 8.52% |
| COc1cc(/C=C2\SC(=S)N(CCCCC(=O)O)C2=O)ccc1OS(=O)(=O)c1ccc(C)cc1 | active: 32.1% |
| Cc1ccc(C)c(NC(=O)N2CCN(C)c3ncccc32)c1 | 5.49% |
| Cc1ccc(Cn2ccnc2SCC(=O)Nc2ccc3c(c2)OCO3)cc1 | -1.64% |
| CCN(Cc1ccccc1)C(=O)Cn1c(=O)n(-c2ccc(OC)cc2OC)c(=O)c2c(C)c(C)sc21 | 2.41% |
| O=C(CN1CCN(c2ccccc2F)CC1)Nc1ccc2c(c1)CCC2 | active: 69.4% |
| CCOc1ccc(NC(=O)c2c(NC(=O)Cc3ccccc3)sc3c2CCCC3)cc1 | -11% |
| COc1ccc(Cl)cc1NC(=O)Cn1c(=O)n(Cc2ccco2)c(=O)c2ccc(C(=O)NC3CCCC3)cc21 | -10.1% |
| CCOc1ccc(CNC(=O)c2ccc(-c3nc(CSc4ccc(C)cc4)c(C)o3)cc2)cc1 | -7.38% |
| COc1ccc2c(Sc3ccccc3)c(C(=O)NCc3ccc(OC(C)C)cc3)[nH]c2c1 | 28% |
| COc1cccc(CNC(=O)c2cc3n(n2)CCCN(Cc2ccc(C)cc2)C3=O)c1OC | 7.49% |

| Structure (SMILES) | inhibition |
| --- | --- |
| COc1ccc(-c2nc3ccc(NS(=O)(=O)c4ccccc4)cc3o2)cc1 | 6.47% |
| CCOc1ccc(-n2c(SCC(=O)NCc3ccco3)nc3c([nH]c4ccccc43)c2=O)cc1 | 24% |
| Cc1cccc(-c2nnc3n(CCc4ccccc4)c(=O)c4ccccc4n23)c1 | 0.618% |
| COc1ccccc1-c1cc(C(F)(F)F)nc(S(=O)(=O)CCCC(=O)Nc2cc(C)ccc2O)n1 | -4.52% |
| CCOc1ccc(CNC(=O)c2cc3c(=O)n(Cc4cccs4)ccc3nc2C)cc1 | -9.41% |
| Cc1ccc2c(=O)c(C(=O)c3ccc(F)cc3)cn(CC(=O)NC3CCCCC3)c2n1 | -9.62% |
| CCc1c(C)sc(NC(=O)c2cc(-c3ccc(OC)cc3)on2)c1C#N | 5.49% |
| CC(=O)Nc1ccc(S(=O)(=O)Nc2ccc(-c3cn4c(C)csc4n3)cc2)cc1 | -8.6% |
| COC(=O)c1cc(S(=O)(=O)N2CCN(c3cccc(C)c3)C(C)C2)c[nH]1 (centres undefined) | 13.9% |
| CCCCn1c2ccccc2c2nnc(SCC(=O)Nc3ccc(NC(C)=O)cc3)nc21 | 7.31% |
| Cc1oc2ccc(O)c(CN(C)Cc3ccccc3)c2c1C(=O)Nc1cccc(Cl)c1C | -0.977% |
| COc1cccc2sc3ccc(C#CC4(N)CCCCC4)cc3c(=O)c12 | active: 31.4% |
| CCc1nc2nc(C)cc(Nc3ccc(Br)cc3F)n2n1 | 4.05% |
| O=C(Nc1onc2c1CCCC2)c1ccc(Cl)cc1 | 20.9% |
| Cc1ccccc1NC(=O)c1c2c(nc3ccccc13)C(=O)N(C1CCCCC1)C2 | 13.5% |
| Cc1ccc(Cn2cc(S(=O)(=O)c3ccc(C(C)C)cc3)c(=O)c3cc4c(cc32)OCO4)cc1 | active: 36.1% |
| COC(=O)Nc1ccc(S(=O)(=O)N2CCCC(C(=O)Nc3cccnc3)C2)cc1 (centres undefined) | active: 43.4% |
| Cc1cc(C)cc(NC(=O)C(NS(=O)(=O)c2cccc3nsnc23)c2ccccc2)c1 (centres undefined) | -3.04% |
| Cc1ccc(Cn2cnc3c(oc4ccccc43)c2=O)cc1 | 11.3% |
| O=C(CSc1nnc(-c2ccc(Cl)cc2)o1)N1CCc2ccccc21 | -1.69% |

| Structure (SMILES) | inhibition |
| --- | --- |
| FC(F)(F)c1ccc(C2[C@H]3CN(Cc4ccc(-c5ccccc5)cc4)[C@H](c4ccccc4)C34CC2(c2ccccc2)C4)cc1 (some centres undefined) | active: 35.4% |
| CCOC(=O)N1CCN(C(=O)c2ccc3c(c2)N(Cc2cc(C)ccc2C)C(=O)c2ccccc2S3=O)CC1 (centres undefined) | 4.78% |
| CCCCOc1nnc(-c2ccc(OCC)cc2)c2ccccc12 | 6.6% |
| COc1ccc(CCNC(=O)CCc2cn(Cc3ccc(C)cc3)c3ccccc23)cc1OC | -2.65% |
| CCC(Sc1nc2ccncc2[nH]1)C(=O)Nc1ccc(F)cc1 (centres undefined) | -12.9% |
| CCOc1ccc(N(C)C(=O)C2CCN(S(=O)(=O)c3ccc4c(c3)CCCN4C(C)=O)CC2)cc1 | 2.58% |
| Cc1ccc(-n2nc(CO)c(C(=O)NCCc3ccccc3)n2)cc1 | 12.3% |
| COc1cccc(-n2c(=O)c3sc4ccccc4c3n(CC(=O)Nc3ccccc3OC)c2=O)c1 | 2.34% |
| Cc1ccc(Cl)cc1N1CCN(C(=O)Cn2ncc3c([nH]c4ccccc43)c2=O)CC1 | -0.235% |
| O=S(=O)(c1ccccc1)c1nnn2c1nc(Nc1ccccc1)c1cc(Cl)ccc12 | -7.92% |
| COc1cccc(C(=O)NCC(=O)OCc2cc(=O)n3nc(C)sc3n2)c1 | 8.35% |
| O=C(CSc1ncc(S(=O)(=O)c2ccc(Cl)cc2)c(=O)[nH]1)Nc1ccc2c(c1)OCCO2 | -17.5% |
| COc1ccc(C(=O)N/C(=C\c2ccc([N+](=O)[O-])cc2)C(=O)NC(CCSC)C(=O)O)cc1 (centres undefined) | active: 34.8% |
| CCCC(=O)Nc1nnc(SCc2cc(=O)c3ccc(C)cc3[nH]2)s1 | -20.2% |
| CCCCNC(=O)C1=CC(c2ccc3c(c2)OCO3)=NS(=O)(=O)N1C | 17.9% |
| O=C1SC(Nc2ccc(Cl)cc2)C(=O)N1Cc1ccccc1 (centres undefined) | -14.1% |
| CCCc1cc(=O)n2[nH]c(NCc3ccc(CC)cc3)nc2n1 | -11% |
| O=C1c2[nH]nc(-c3ccccc3)c2C(c2ccccc2)N1c1cccc(C(F)(F)F)c1 (centres undefined) | 5.2% |
| O=C1CS(=O)(=O)C2(C(=O)N(Cc3ccc(F)cc3)c3ccccc32)N1c1cccc(C(F)(F)F)c1 (centres undefined) | 4.32% |
